The record followed here is article PMC3419718.

For assay [1], the target named is T1, GLO-2.a (C. elegans) (UniProt O01822).
T1 sequence: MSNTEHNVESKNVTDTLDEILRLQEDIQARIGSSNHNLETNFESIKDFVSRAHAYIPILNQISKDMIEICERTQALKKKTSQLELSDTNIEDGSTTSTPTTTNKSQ
Briefly: two-hybrid; GAL4-based, S. cerevisiae PJ69-4A; growth assay spotted on SD media lacking tryptophan, leucine and histidine (adenine added back at 0.02 mg/ml), HIS3 reporter, 4 days at 30°C.

Assay [2] has as its target T1, GLO-2.a (C. elegans). Briefly: two-hybrid; library screen: pGBKT7g-GLO-2.a bait against the Caldwell C. elegans cDNA library in pACT2.2, PJ69-4A; approximately 200,000 clones on adenine dropout media; clones recovered from yeast and retested.
In assay [3] the target is T2, SNPN-1 (C. elegans) (UniProt O44445).
T2 sequence: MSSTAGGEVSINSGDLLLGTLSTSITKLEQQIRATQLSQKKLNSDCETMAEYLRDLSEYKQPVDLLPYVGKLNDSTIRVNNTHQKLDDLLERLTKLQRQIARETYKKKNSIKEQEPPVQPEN
Briefly: two-hybrid; GAL4-based, S. cerevisiae PJ69-4A; growth assay spotted on SD media lacking tryptophan, leucine and histidine (adenine added back at 0.02 mg/ml), HIS3 reporter, 4 days at 30°C.

No constants are given. Whether binding was seen depends on the method and setting. Some entries that bind do so weakly or less than the wild type.

B1: SNPN-1 (protein, UniProt O44445 1-122)
chain: T2 sequence
With B1, the binding entry in assay [1] was “no binding”.

B2: BLOS-1 (protein, UniProt Q22616 1-129)
chain: MLKEHSKKQHLRREVQEKLKNEAIVAAQTLSTAVVDHLNAKVAQAYGNQKRLDVEAKRFENNSAALAKQTEQWLFITEGLNYALKEIGDVENWSKTIENDMKIITETLRRAYEAKNPPLPPNQANPASH
As for B2, the binding entry in assay [1] was “binds”.

B3: GLO-2.a (protein, UniProt O01822 1-106)
chain: T1 sequence
B3: the binding entry in assay [1] is recorded as “binds”.

B4: BLOS-4 (protein, UniProt Q22756 1-106)
chain: MTGVDDISSNVHKLVGVTAGMNTAASTGPMNLVLDKCSVVLEELRTIQILTETHSEGLSEQLKMTEKNILEMENLFDQIDQLCLFVQKAKSDLDKLEKLYNVVDRQ
Regarding B4, the binding entry in assay [1] and in assay [2] was “binds” throughout.

B5: DSBN-1 (protein, UniProt Q9XWQ1 1-210)
chain: MDMLNTLRDTLSSVQAELSTGVEKLRMNVSANIVAQQKVSTESVNEILNTSAGNELLQNFQNLITEVEENGAEGGRLANLCSTRMGRCQQMCKEKADAVMEIDEFLRNSVEFDKKIREINAQISKLTRFCNQTEQAMTYLEALCEVAHTEGEVDLIRQQAKSAATIVQIECESPSVLTSALRSRPEDAVKAQQEEVMLEEFLSSKNMQLP
With B5, the binding entry in assay [3] was “binds”; in assay [1], “no binding”.
